System: Vcap cells (androgen receptor (+) prostate cancer cells)
Experiment: CTG cell proliferation assay (CellTiter-Glo), compounds alone or in combination

SMILES | Survival rate of Vcap cells (1 μM tested compound in combination with 1 μM B001 and 1 μM prednisone and 1 μM Abiraterone acetate) [%] | Survival rate of Vcap cells (1 μM tested compound in combination with 1 μM B001 and 1 μM prednisone and 1 μM ODM-201) [%] | Survival rate of Vcap cells (10 μM tested compound in combination with 1 μM B001 and 1 μM prednisone and 1 μM Abiraterone acetate) [%] | Survival rate of Vcap cells (10 μM tested compound in combination with 1 μM B001 and 1 μM prednisone and 1 μM ODM-201) [%] | Survival rate of Vcap cells (10 μM tested compound in combination with 1 μM B001 and 1 μM prednisone and 1 μM Galeterone) [%]
CC1(C)C(=O)N(c2ccc(C#N)c(C(F)(F)F)c2F)C(=S)N1c1ccc(CCCC#N)c(F)c1 [AR2-4] | 49.4 | 50.9 | 31.1 | 29.2 | 
CC1(C)C(=O)N(c2ccc(C#N)c(C(F)(F)F)c2)C(=S)N1c1ccc(OC[C@@H](O)CO)cc1 [AR3-3] |  |  |  |  | 45.7
